# Source: the supplement of paper PMC4166925
# ± gives the standard deviation of the averaged measurements. The full ranking holds about 33,000 sequences; the median of “E-score (dimensionless, -0.5 to 0.5)” is about -0.049, and the highest 2% start at about 0.37. This is one part of the list.
# Test system: T1, PmTbr T-box DNA-binding domain (GST fusion)
# T1 sequence: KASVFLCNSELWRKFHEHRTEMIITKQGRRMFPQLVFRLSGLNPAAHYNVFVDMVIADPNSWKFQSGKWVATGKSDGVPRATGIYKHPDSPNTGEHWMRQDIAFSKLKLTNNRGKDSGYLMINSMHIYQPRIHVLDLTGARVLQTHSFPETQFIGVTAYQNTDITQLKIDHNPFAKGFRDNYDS
# Experiment: PBM E-score of 8-mer (E-score (dimensionless, -0.5 to 0.5)); Tbr is Tbrain of the sea star Patiria miniata (Pm) or the sea urchin Strongylocentrotus purpuratus (Sp); higher = stronger binding preference; most listed sequences are background and not binding sites
# Details: the construct has about 5 more residues each side
# How it was run: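 Each ungapped 8-mer received an enrichment E-score from the Universal PBM Analysis Suite, averaged over duplicate arrays. The proteins were Tbr T-box DNA-binding domains, covering the whole T-box plus about five flanking residues, fused to GST and expressed in BL21 E. coli at 20 °C before glutathione affinity purification. Universal Agilent oligonucleotide arrays were made double-stranded by primer extension and incubated with 200 nM protein in PBS (pH 7.5). The arrays were then scanned and quantified, and every 8-mer was scored from probe intensities.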
row,Sequence,PBM E-score of 8-mer
1,ACATAAAG,-0.00286 ± 0.12
2,AGCAGCCC,-0.2 ± 0.028
3,GGGCTCTA,-0.0697 ± 0.023
4,CCCATCGA,-0.171 ± 0.068
5,ACAGGTTC,0.127 ± 0.0093
6,CGATACCG,0.0117 ± 0.029
7,AAGTAGGA,-0.0354 ± 0.024
8,ACTTGCTA,0.266 ± 0.053
9,GTAAGTGA,0.264 ± 0.0097
10,CGATATGA,0.0653 ± 0.066
11,AATTGCTA,0.0917 ± 0.016
12,CTCCTCCC,-0.206 ± 0.033
13,ACCCCCGT,-0.0282 ± 0.12
14,CCTTACGC,0.151 ± 0.012
15,AATTACTA,-0.082 ± 0.044
16,CATATTAC,-0.0844 ± 0.0063
17,GCTGAAAC,-0.0556 ± 0.028
18,CATACTCC,-0.173 ± 0.044
19,AGTTGCTG,-0.00151 ± 0.072
20,AAGATACG,0.0813 ± 0.1
21,CGCATAAG,0.0338 ± 0.011
22,AATGCTGG,-0.209 ± 0.026

row,Sequence,PBM E-score of 8-mer
1,AGACTCGC,0.0603 ± 0.0075
2,ACGGGGCA,-0.145 ± 0.094
3,ATTCTGGG,-0.114 ± 0.027
4,CCCGCGGA,-0.0886 ± 0.065
5,AAACCAAG,-0.0652 ± 0.0092
6,ATGAGTCG,-0.169 ± 0.025
7,GACAGCTA,0.244 ± 0.02
8,ATACAGGC,0.0158 ± 0.034
9,CCTGCAAC,-0.0436 ± 0.095
10,ATTAAATA,-0.112 ± 0.032
11,AGATGTAC,-0.275 ± 0.024
12,ATTATCAG,-0.0355 ± 0.028
13,CGATGAGA,-0.0609 ± 0.078
14,AGGGTAAC,0.0462 ± 0.052
15,CCTATGTA,-0.24 ± 0.069
16,GTATAGAC,-0.145 ± 0.019
17,AGCAGGTA,-0.0669 ± 0.01
18,ACCAAGGC,-0.0484 ± 0.083
19,CGCAAACG,0.0243 ± 0.048
20,CAAACCGG,-0.0337 ± 0.00061
21,CGGCGCTA,0.239 ± 0.033
22,GCAGATGA,-0.155 ± 0.068

row,Sequence,PBM E-score of 8-mer
1,AGTGTCCG,0.183 ± 0.015
2,ATAGTCAC,0.205 ± 0.027
3,AGGATATC,-0.00124 ± 0.011
4,GCTCTGAA,-0.202 ± 0.054
5,ATCCGGGA,-0.172 ± 0.048
6,ACGGTAAC,0.0217 ± 0.0084
7,AAGGTCCC,-0.225 ± 0.012
8,CAGACCGA,-0.283 ± 0.012
9,CTTGATCA,0.049 ± 0.0072
10,ACGAATCT,0.0521 ± 0.069
11,GCCACAAA,0.0605 ± 0.0025
12,CGATTCAA,-0.0063 ± 0.026
13,ATCACACC,0.4877 ± 0.0026
14,CATGTGGA,-0.0456 ± 0.085
15,GGGCTCAC,0.0294 ± 0.044
16,AGACGAAC,-0.12 ± 0.011
17,ACCAGGTC,-0.101 ± 0.039
18,CTCTACAC,0.0228 ± 0.05
19,CAGGACAA,-0.0885 ± 0.013
20,GAAAATCA,-0.059 ± 0.068
21,CCGTACGA,-0.137 ± 0.058
22,CCGGCCGC,-0.155 ± 0.027

row,Sequence,PBM E-score of 8-mer
1,AGTCATGC,-0.221 ± 0.03
2,CCCACGTA,0.0492 ± 0.04
3,CTTCACCA,0.0251 ± 0.00097
4,AGGAAATA,0.1 ± 0.069
5,ACACTCAG,0.234 ± 0.017
6,AATTGTAT,-0.0967 ± 0.012
7,ATTTTGGA,-0.228 ± 0.05
8,CACTTCCC,0.3321 ± 0.00048
9,ACAGTGTC,0.238 ± 0.0038
10,TGTCAAAA,0.287 ± 0.056
11,CTGAAATC,-0.143 ± 0.02
12,CTCTAGGA,-0.311 ± 0.059
13,AAAAAAGG,-0.0703 ± 0.013
14,AGGAATCA,-0.0111 ± 0.062
15,AGCCCTGA,-0.145 ± 0.054
16,ACTGAATC,-0.285 ± 0.013
17,GAGTCGTA,-0.00102 ± 0.018
18,GGCCCGTA,-0.237 ± 0.082
19,AATTCTAT,-0.13 ± 0.031
20,CCTTTGCG,-0.0829 ± 0.011
